Broadly, the IC50 is the concentration at which inhibition is half-maximal.

In this assay the test system is 993429-296-R-J1-PDC complex spheroid growth, percent test/control. The assay is described as follows: Anticancer human tumor 993429-296-R-J1-PDC patient-derived uterine sarcoma cell line growth inhibition [Asc]. Particulars: for viability, T/C: stronger effect = lower value; for IC50: compound alone. Here is the method: Multicellular complex tumor spheroid response to apoptosis pathway targeting inhibitors Alrizomadlin, Pelcitoclax, and Dasminapant in combination with a variety of drugs and investigational agents in selected tumor cell lines
The MDM2 inhibitor alrizomadlin, the Bcl-2/Bcl-xL inhibitor pelcitoclax, and the IAPs inhibitor dasminapant were evaluated both individually and in combination with standard of care and investigational anticancer small molecules within a complex spheroid model of solid tumors. . Complex spheroids include a stromal component modeled by human endothelial cells (HUVEC) and fibroblasts modeled by human mesenchymal stem cells (MSCs). The concentration ranges selected for each drug and investigational agent were based upon clinically achievable concentrations if the clinical Cmax of the agent was known.
Compounds. The drugs and investigational agents: alrizomadlin (APG-115; NSC831270), pelcitoclax (APG-1252; NSC835773), dasminapant (APG-1387;NSC834197), TAK-243 (NSC785004), copanlisib (NSC809693), olaparib (NSC753686), talazoparib (NSC767125), cobimetinib (NSC 768068), eltanexor (KPT-8602, NSC 794443), abemaciclib (NSC 768073), sotorasib (NSC818433), adagrasib (NSC 831453), MRTX-1133 (NSC 836407), Iadademestat (ORY1001, NSC 806812), and RMC-4630 (NSC839698), were obtained from the NCI Developmental Therapeutics Program Chemical Repository. The FDA-approved anticancer drug set is available from the Developmental Therapeutics Program at https://dtp.cancer.gov/organization/dscb/obtaining/available plates.htm. […] The stock solutions were prepared in dimethyl sulfoxide (DMSO, Sigma-Aldrich, St. Louis, MO, cat. D2650) at 800-fold the tested concentration and stored at -70 degrees C prior to their use. All drugs and investigational agents were tested over a range starting from a high concentration at or near the clinical Cmax and decreasing in half-log increments. If the clinical Cmax for an agent had not been determined, the highest concentration tested was 10 microM.
The patient-derived cancer (PDC) cell lines include five colon adenocarcinomas: 186277-243-T-J2-PDC, 616215-338-R-J1-PDC, 439559-082-T-J2-PDC, 463943-066-T-J2-PDC, and 519858-162-T-J1-PDC; three pancreatic carcinomas: 323965-272-R-J2-PDC, 521955-158-R6-J3-PDC, and 521955-158-R2-J5-PDC; two uterine sarcomas: 327498-152-R-J2-PDC and 993429-296-R-J1-PDC; two rhabdomyosarcomas: 755483-174-R-J1-PDC and 772245-204-R-J1-PDC; two soft tissue sarcomas: 126254-015-R-J1-PDC and 494315-158-R-J1-PDC; two malignant fibrous histiocytomas: 317291-083-R-J1-PDC and 596521-263-R-J1-PDC; two breast carcinomas: 171881-019-R-J1-PDC and 885512-296-R-J2-PDC; and one ovarian carcinoma: 6556581-035-R-J-PDC were obtained from the NCI PDMR, (https://pdmr.cancer.gov). The established cell lines HSSY-2 synovial sarcoma (RRID:CVCL 8719), SYO-1 synovial sarcoma (RRID:CVCL_7146), MPNST malignant peripheral neural sheath tumor were obtained from the Sloan Kettering Institute. The following established cell lines were purchased from the American Type Culture Collection (ATCC, Manassas, VA), Sor the received from the NCI repository:, PANC-1 pancreatic carcinoma (CRL-1469, RRID:CVCL_0480), OVCAR-5 ovarian carcinoma (RRID:CVCL_1628), OVCAR-8 ovarian carcinoma (RRID:CVCL_1629), , MCF-7 breast carcinoma (CRL-12584, RRID:CVCL_0031), MDA-MB-231 breast carcinoma (CRL-12532, RRID:CVCL_0062), NCI-H1876 small cell lung carcinoma (CRL-5902, RRID:CVCL_1503), NCI-H510A small cell lung carcinoma (HTB-184, RRID:CVCL_1565), NCI-H1417 (CRL-5869, RRID:CVCL_1469), and NCI-H196 small cell lung carcinoma (CRL-5823, RRID:CVCL_1509). Dr. Peter Houghton (Greehey Children's Cancer Research Institute, University of Texas Health Science Center, San Antonio, TX) provided Rh-18 rhabdomyosarcoma (RRID:CVCL_1659). Pooled donor human umbilical vein endothelial cells (HUVEC, Lonza, cat. CC-2519) and human mesenchymal stem cells (hMSC, Lonza, cat. PT-2501) were purchased from Lonza (Walkersville, MD).
Cell Culture. […]

Some entries of the source have several records that differ or are many. This list holds those alone. An entry can have further records. Values that stand side by side repeat one measurement (runs, samples, wells, individuals or studies). Marks such as (2×) give the number of equal values in this list. A date in brackets names the month of the test.
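Further: spheroids exposed to compounds for seven days.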

`C#Cc1c(F)ccc2cc(O)cc(-c3ncc4c(N5CC6CCC(C5)N6)nc(OCC56CCCN5CC(F)C6)nc4c3F)c12` (configuration not stated): the viability, T/C (compound alone 10 µM) was 5.06%, 3.76% [2022-09] and 89.8% [2022-10].

As to `CCN1C(C(=O)NC23CCC(C(=O)O)(CC2)CC3)C(c2cccc(Cl)c2F)C2(C(=O)Nc3cc(Cl)ccc32)C12CCCCC2` (configuration not stated), the viability, T/C (compound alone 0.03 µM) was 93.3, 106, 99.8, 91.9 (2×), 101, 90.7, 79.8, 91, 98.7, 91.1, 87.8, 100, 93.9% [2022-09] and 99.7% [2022-10]; the viability, T/C (compound alone 0.0949 µM) was 111, 113, 89.2, 99.4, 92, 97.4, 101, 93.6, 90.4, 87.5, 87.7, 86.4, 87, 76.3% [2022-09] and 110% [2022-10]; the viability, T/C (compound alone 0.3 µM) is 92.3 (2×), 89.1, 102 (2×), 108, 89.6, 82.8, 92.6, 103, 87, 95.8, 88.9, 92.1% [2022-09] and 104% [2022-10]; the viability, T/C (compound alone 0.949 µM) is 88, 103, 89.5, 96.9, 85.3, 80.1, 89.1, 112, 93.8, 108, 98.4, 107, 90.8, 84.6% [2022-09] and 95% [2022-10]; the viability, T/C (compound alone 3 µM) is 87, 100, 84.5, 99.8, 98.4, 83.6, 93, 76, 101, 71.8, 86.4, 74.8, 99.6, 88.1% [2022-09] and 96.7% [2022-10].

For `CNC(C)C(=O)NC1CN(S(=O)(=O)c2cccc(S(=O)(=O)N3CCC4CCC(C(=O)NC(c5ccccc5)c5ccccc5)N4C(=O)C(NC(=O)C(C)NC)C3)c2)CCC2CCC(C(=O)NC(c3ccccc3)c3ccccc3)N2C1=O` (configuration not stated), the viability, T/C (compound alone 0.316 µM) was 50.2%, 71.8% [2022-09] and 44.8, 58.1, 60.6, 45.7, 40.3, 65.2, 59.5, 68.4, 49.8, 53, 49.5, 57.4, 47.1% [2022-10]. For the same compound, the IC50 (run of 10/03/2022) was 227 nM, 562 nM, 132 nM, 190 nM, 324 nM, 425 nM, > 1 µM, 295 nM.

Take `Cc1c(S(C)(=O)=O)c(-c2cc(F)cc(N3CCN(c4ccc(NS(=O)(=O)c5ccc(NC(CCN6CCC(C(=O)OCCCP(=O)(O)O)CC6)CSc6ccccc6)c(S(=O)(=O)C(F)(F)F)c5)cc4)CC3)c2)c(-c2ccc(Cl)cc2)n1C(C)C` (configuration not stated): the viability, T/C (compound alone 0.1 µM) was 78.4, 79.8 (2×), 68.8, 73.7, 73.5, 54.7, 70.3, 71, 64, 85.3, 80.2, 73.8, 89.7%; the viability, T/C (compound alone 1 µM) was 51.6, 56.2, 63.3, 47.3, 51.4, 53.1, 47.4, 42.9, 49.3, 52, 67.8, 69.8, 57.4% (2×); the viability, T/C (compound alone 10 µM) was 72.8, 100, 61.4, 56.8, 80.5, 76.9, 87.4, 74.2, 76.5, 89.5 (2×), 75.1, 92.7, 80.4%. The IC50 (run of 09/27/2022) was > 10 µM and 676 nM.

Source of the values: PubChem BioAssay AID1963446 (Molecular Pharmacology Branch, DTP, NCI, 2024).
